Reference: the supplement of paper PMC11417369
The list shows a part of the results.

test system: PfHDP1 homeodomain (GST-tagged); test: gcPBM binding intensity (ln(normalized median fluorescence intensity)); higher = stronger DNA binding
In short: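 An Agilent 4 × 180k array carrying primer-extended double-stranded 36-bp intergenic genomic probes and negative controls received GST-tagged P. falciparum DNA-binding domains expressed in E. coli, about 25 μg on average, for 1 h. The binding buffer contained 1× PBS, 1% milk, 0.2 mg/ml BSA, 0.5% salmon testes DNA and 0.03% Triton X-100. Binding intensity is the top Masliner-normalised natural-log median intensity across replicate spots of either probe orientation, read after Alexa488 anti-GST antibody staining and a 488 nm scan.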

Sequence	gcPBM binding intensity (ln)
AAAAGGAAGATATATACACACATACAAATATTTATA [CACACA_site7093]	6.71
TTATACTAAATGAACACACACACATATATATATATA [CACACA_site99]	9.27
ATATTAATGATATATACACACATAAGTATTGTATAT [CACACA_site7844]	6.4
AAATGTAATTTGTCTTTTATTTATATTTGACATGAT [TGCATGCA_negctrl_site520]	6.08
TTTTTTTTTTTTTTTTTTTTTTTGCTCAGTGTGGTA [CACACA_negctrl_site29]	6.88
AAAAATTATAAAAAACAAATATTAAATAATTATTAA [GTGCAC_negctrl_site125]	6.15
TTGATGGGAAAAAACTTTTTTTTCTTTTTTTCTTTC [CACACA_negctrl_site328]	5.65
AGAGTTAAACGATATATATAAATATATATATATATA [GTGCAC_negctrl_site316]	9.03
AAAAAAAAAAACGACAGTACAATTATAATTTATATT [XGTACX_site2365]	6.33
ATGTCTTAAAAATTAAAACACACGTTCACTTTCATA [CACACA_site3385]	6.46
AGATCATAATATTATACACACATTAGATATAGGTAA [CACACA_site6809]	6.76
ACTCTTTTAACGCAAAGTACTTTTTAAAATATTTCG [XGTACX_site7534]	7.23
AACATACGAATATTCACACATAAATATATAAATCGC [CACACA_site4672]	6.47
ATTTCTATTTGGGTTAGTACATATAAGTCTATTTTC [XGTACX_site3234]	6.6
TATATAATCGAGTGCACACACAAAAAAAAAGTGAAC [CACACA_site1483]	10.4
TTTTTTTTTTCTTTTTGTACATATTCATAACAAGTA [XGTACX_site2784]	6.34
TATTATATATATATCACACATATATTCATGTACATA [CACACA_site5432]	6.72
AATACGTTATTATTTTGTACATATAAATAATAAGTT [XGTACX_site815]	6.29
AAAAAAGACCATGTTAGTACATAAGATTTTTTTCAT [XGTACX_site4298]	5.89
ATATATAATATTTATTGTACTATTTTATTTTTATAA [XGTACX_site705]	6.36
TTTGACATACCTCTTGCATGTGAAAAACTTTTCGCT [TGCATGCA_site364]	6.31
TTCTAGAAAACTGATCGTACAAATAAATATAGACAC [XGTACX_site2808]	6.72

Sequence	gcPBM binding intensity (ln)
ATATATTATAATGATACACACAAGAAATAAAATTAC [CACACA_site3095]	6.82
TATAAAATAAAAGTAAATATATATATATATATATAT [TGCATGCA_negctrl_site208]	9.3
AAAATAGGGATCACGTGTACATATAAAGTGACATAC [XGTACX_site8190]	7.04
AATGCATACACATATTGTACTAAGCCATACAACACA [XGTACX_site305]	6.75
TATATATATAAATACACACACACCGTCCGTGTTAAA [CACACA_site5623]	7.45
ATATATATTATATAGTGTACCTATGTATAATAATAT [XGTACX_site1683]	6.53
ATATATATATATATATGTACACATATTATAAAAAAA [XGTACX_site8644]	9.18
TATGTAGGTAAAAATTGTACTTTTTTTTTAATATTT [XGTACX_site2303]	6.08
TGAATAAATATAAAAGGTACACATATAAATATATAT [XGTACX_site6349]	6.38
TGACATAATGTGTGTAGTACATATATCGTTATTTGA [XGTACX_site5152]	6.33
TAACTCTATTTTTTTGCATGCTGAAGCTATGAGTTT [TGCATGCA_site821]	6.77
CACAAAAATAGACACACACACATATAAATAAATATA [CACACA_site6598]	6.68
ATAATATTATGTGTGAATATATCTTTAAAAAGGATA [GTGCAC_negctrl_site15]	6.33
TATATATTTCATAATACACACGAAAAAAAAAAAAAA [CACACA_site8972]	6.58
ATAAAAATAAAATAAGGTACAGACGAAAAAATTGAA [XGTACX_site5097]	6.78
TATATATCTATAAACACACACCAAAATTTGTGCTTT [CACACA_site7448]	6.65
ATATACTTTAAAGGTTAAGAAAGAAAAAAAAAAAAA [CACACA_negctrl_site956]	6.32
ATATATATATATTATATGCACACGTTAAAATTTCAT [CACACA_site709]	10.4
AAATAAAAAGAAAAGAAAAAGAAAATAAAAAGAGAA [XGTACX_negctrl_site14]	6.31
ATAAAATGAACAAACACACACACATATATTTATATA [CACACA_site7181]	6.77
GTATTACATGAGGACACACACAAAAAAAATATATAT [CACACA_site769]	7.06
TTATTATAAAAATGTAGTACAATACTTTTTTTTTTT [XGTACX_site732]	5.98

Sequence	gcPBM binding intensity (ln)
TAATTATTTTAAAAAGTGCATTAAAAGATATTAAAT [GTGCAC_site9694]	7.88
GAATAAATAAGATACGTACACACATATACAAAATAT [CACACA_site3660]	6.7
AAAAATAAATTTATATATTACAAGAACAAATATAGT [XGTACX_negctrl_site567]	6.77
TTTTTTTAAAAAAAGGGTACATATATATATTTTTCT [XGTACX_site1066]	6.41
ATAATATAAACGTATACACACAAGAGAAGCATAAAG [CACACA_site2889]	7.37
AAAAGGAAAGGAAAGGGTACAATCCTATTATATTAT [XGTACX_site8652]	6.16
CTTATACATATATATAGTACATATATCATTTTTATG [XGTACX_site4462]	6.84
AATTTTCTTAAAATTTGTACGTATATATTTAATATA [XGTACX_site3906]	6.46
GTCATATATAATTGTTGTACATTTTTATAATTATGT [XGTACX_site8091]	6.68
AATATAAATGTGATTACACACAACACATTTAAATGT [CACACA_site1212]	6.47
AAAAAATTATATTATGCACACATCGTTATATATATA [CACACA_site1201]	10.2
TATATATACTATAACACACATACACCCAAAAAAAAA [CACACA_site536]	7.07
ATATGTATCTCATCGTGTACATGTATATAATATATA [XGTACX_site4139]	6.73
TTAGAAAAATTATATATACACACTTATATTTATATA [CACACA_site2821]	6.2
ATATATCAAAATAATTGTACAAATTTTATATAATTT [XGTACX_site7249]	6.43
ATATAGTAAAGTTATACACACATGAATTTTCCCATG [CACACA_site6923]	6.64
TAAACAGACATATAAACACACATACATACATACATA [CACACA_site7215]	6.65
TTTCATGACAATGTTTGTACATAATAAAATATATTT [XGTACX_site7039]	6.42
TTAAAAAGATGTCACTGTACATAAAACATAAAATAT [XGTACX_site2886]	6.75
GAAGAGACTTAGAAAACACACATACATAAGATAATT [CACACA_site5333]	6.46
AAAAAAAAAAAAAAAACACACATAAAACTATAATAA [CACACA_site7758]	6.62
TTTATATATATTCTCACACACTTTTTATTTTAACAA [CACACA_site4534]	6.68

Sequence	gcPBM binding intensity (ln)
AAAAATATTTATAACACACACATAATATTTATATAT [CACACA_site7238]	6.78
ATAAATTTCCTCGTTTTTTTTTTTTTTTTTTTTTTT [CACACA_negctrl_site1173]	6.95
CTATTTCAGAAACACACACACACAAACAAACATATA [CACACA_site978]	6.85
TATTTGAAAGCCAATTGTACTTTAGTTTTTGAAACA [XGTACX_site5542]	5.98
CAAGAAATTTACAAACGTACATATGTTCATACAAGG [XGTACX_site2372]	6.73
TTAGAGAAACAAAATTGTACATTATAAATTTGCCTT [XGTACX_site440]	6.02
TTTCTTTTTAAATAGGTGCATATTTTTATAAATATA	8.83
TTAAATATAATATTATGTACTAAATATTTTTTTATT [XGTACX_site6121]	6.32
ATATATTTACATATTACACACAATATTGTACACATA [CACACA_site6564]	7.11
ATATATTTTTGTAGTGTGCACGTTTATATGGTGAAA	8.78
TATAAACATATCATATGTACATATATTTTTATAAAA [XGTACX_site8882]	6.29
TTTAACGTTGAATATACACACATATATATATATATA [CACACA_site3698]	9.32
AAGAAAAAATAAAAAATAAAAATAAAAAATAAAAAA [TGCATGCA_negctrl_site274]	6.41
TAAGGATGAATCCTTTGTACATATATATATATATAT [XGTACX_site1242]	9.34
GTTATACATTTTGATTGTACATAAACCATTTGAGCA [XGTACX_site7283]	6.54
TGAAAAGAAAACACATGTACAAATATATAAATATAA [XGTACX_site6098]	6.39
TTTTTTTAAATATACACACACATTTATACATATATA [CACACA_site3400]	6.78
ACAAAATTTACAAAATGTACAAAATTTACAAAATGT [XGTACX_site6464]	5.98
GAAGGAAAAACAGAATGTACATAAATAAACGTATAT [XGTACX_site753]	7.24
TATATCTTACTTTTTGCACACACTAATATTATTGTT [CACACA_site1640]	10.1
AATACGGCAAACATTAAAAAATATAATAACAATAAA [CACACA_negctrl_site868]	6.54
AAAAAATATTAATATAGTACTTTATATTTATAAGTA [XGTACX_site6895]	6.04
